Hit rate of the full screen: of about 320,000 compounds, about 7,600 (2.4%) were called active. The shares of active, inactive and inconclusive entries below differ from those in the screen. Calls come from the whole dose curve; as a rule, active = well fitted activation curve with a large enough effect; inconclusive = small, poorly fitted or top-dose-only effect; inactive = no such curve, though single readings can be large or run the other way. Potencies beside an inconclusive call are fits to weak or partial responses and may not hold up.
Experiment: qHTS Assay for NPC1 Promoter Activators; note: nearly all actives have a fitted effect of over 60% in size;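 for activation: reporter is driven by a mutant NPC1 promoter; % of control where 0% means no effect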
Settings: Huh7 NPC1 promoter luciferase reporter, 24 h; series mostly up to 9.22 µM; activation: at the top concentration
Outline: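 Huh7 cells stably carrying NPC1 promoter–luciferase, plated in Opti-MEM with 10% FBS for 2 h, were exposed to compound in DMSO for 24 h at 37 °C; luciferase reagent was added for 10 min and luminescence read.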
Potency is the fitted concentration of half-maximal effect; tags give direction and shape of the fitted curve.

Potency, inconclusive:
Cc1ccc(OCC(=O)Nc2ccccc2-c2ccccc2)cc1 3.16 µM [activator, single point], CC1CCCCN1C(=O)C1CC(c2ccc(F)cc2)=NO1 (stereo not given) 3.16 µM [activator, single point], Cc1ccc(NC(=O)c2ccc3nsnc3c2)c(C)c1 5.62 µM [activator, single point], COc1ccccc1NC(=O)Nc1nc2ccc(S(N)(=O)=O)cc2s1 3.98 µM [activator, single point], CCCC(=O)n1nc(-c2ccc(C)cc2)nc1NCc1ccco1 3.55 µM [activator, partial curve], O=C(N/N=C/c1cccc(O)c1)c1ccc2c(c1)OCCO2 3.16 µM [activator, single point], CCOc1ccc(NC(=O)CN(C)C(=O)c2ccc(=O)[nH]c2)cc1OCC 3.55 µM [activator, partial curve], COc1ccc(C(=O)/C=C/c2ccccc2F)c(OC(=O)c2ccc([N+](=O)[O-])cc2)c1 5.62 µM [activator, single point], CCN1CCc2c(sc(NC(=O)C3COc4ccccc4O3)c2C(N)=O)C1 (stereo not given) 5.62 µM [activator, single point], CCOc1ccccc1N1CCN(S(=O)(=O)c2cc(C)ccc2OC)CC1 3.98 µM [activator, partial curve], CCSc1nnc(N2C(=O)c3ccc(C(=O)c4ccc(C(=O)O)cc4)cc3C2=O)s1 5.62 µM [activator, single point], CCSc1nsc(NC(=O)Nc2cccc(C(C)=O)c2)n1 3.16 µM [activator, single point], Cc1ccc(Cl)c(N/C=C/C(=O)c2ccccc2)c1 3.16 µM [activator, partial curve], COCCCNCCCCOc1ccc(OCc2ccccc2)cc1 3.55 µM [activator, single point], COc1ccc(-c2cc3ccc(O)cc3oc2=O)cc1OC 3.98 µM [activator, single point], Cc1nn(-c2nc3ccccc3[nH]2)c(N)c1-c1ccc(Cl)cc1 2.51 µM [activator, partial curve], Cc1c(NC(=O)c2cc(-n3cnnc3)ccc2Cl)cccc1-c1nc2ccccc2s1 2.82 µM [activator, partial curve], O=C(Nc1ccc2c(c1)OCO2)c1ccc(CN2CCOCC2)cc1 3.98 µM [activator, partial curve], CCOc1ccc(NC(=O)c2ccc3snnc3c2)cc1 3.16 µM [activator, partial curve], CCOc1ccc(C(=O)Nc2cccc(C(=O)O)c2C)cc1Cl 0.0891 µM [activator, partial curve, poor fit], Cc1cc(C)n(-c2ccc(C(=O)Nc3ccc4c(c3)OCCO4)cc2)n1 3.55 µM [activator, partial curve], O=C(NCC1CCCO1)c1c(O)c2c([nH]c1=O)CCCC2 (stereo not given) 3.16 µM [activator, single point], CCSc1ncccc1-c1nc2ccccc2[nH]1 2.82 µM [activator, partial curve], CCOC(=O)C1CCCN(C(=O)CSCc2ccccc2)C1 (stereo not given) 5.62 µM [activator, single point], Cc1ccc(-c2ccc(/C=C(\C#N)C(N)=S)n2C)cc1 2.82 µM [activator, partial curve], C/C(NC(=O)c1cccs1)=C1\C(=O)C[C@@H]2[C@H]1C2(C)C 2.82 µM [activator, partial curve], Cc1ccc(CONC(=O)c2ccc(C)cc2)cc1 5.62 µM [activator, single point], CCCn1nc2cc(C(=O)NCCc3cccs3)ccc2c1OCC 2.82 µM [activator, single point], O=C(COc1ccccc1)Nc1ccc(-c2nnc(-c3ccco3)o2)cc1 1.58 µM [activator, partial curve], c1ccc(Oc2cc(-c3ccccc3)ncn2)cc1 3.98 µM [activator, partial curve], O=C(NCC1CCCO1)c1cc2ccccc2cc1O (stereo not given) 5.62 µM [activator, single point], CC(C)(C)CC(=O)Nc1cccc(-c2cn3cccnc3n2)c1 3.55 µM [activator, partial curve], Cc1ccc(C(=O)Nc2ncc3c(Cl)cccc3n2)cc1 0.316 µM [activator, partial curve], COc1ccc(-c2noc(N(C)CC(=O)Nc3cccc(C(F)(F)F)c3)n2)cc1 3.55 µM [activator, single point], CSc1n[nH]c(-c2ccc(C(F)(F)F)cc2)n1 3.16 µM [activator, single point], O=C(NCc1ccccn1)C(=O)Nc1ccccc1 3.55 µM [activator, single point]

Potency, active:
COc1cccc(NC(=O)Nc2nccc(C)n2)c1 1.26 µM, CC(C)OC(=O)c1ccc(NC(=O)c2ccco2)cc1 2.51 µM, CN=c1scc(C)n1/N=C/c1ccc(O)cc1 3.16 µM, c1ccc(COc2ccc(-c3csnn3)cc2)cc1 1.78 µM, O=C(CSc1nnc(-c2ccccn2)o1)Nc1ccccc1 2.51 µM, COCCn1c(C)cc(C2=NNC(=Nc3ccccc3)SC2)c1C 0.355 µM, C/C(=N\NC(=O)c1ccccn1)c1ccc(Cl)cc1 0.794 µM, Nc1ncc(-c2cc3ccccc3oc2=O)s1 2.51 µM, CCOc1ccc(N=NC2C(=O)N(C(N)=S)N=C2C)cc1 (stereo not given) 2.82 µM, COc1ccc(C(=O)NCCc2nnc3ccc(SCC(=O)Nc4ccccc4)nn23)cc1 1.58 µM

activation, inactive:
Cc1cc(C)n(-c2ccc(C(=O)Nc3cccc(S(=O)(=O)N(C)C)c3)cc2)n1 -14.4%, CCCSc1nc2c3c(sc2c(=O)[nH]1)CC(C)(CC)OC3 (stereo not given) 5.27%, COc1ccc(S(=O)(=O)NCc2ccc(C(=O)O)cc2)cc1 -2.68%, COC(=O)c1ccc(NC(=O)c2cc[n+]([O-])cc2)cc1 -0.774%, COc1ccc(S(=O)(=O)N(C)c2nc3ccccc3n3c(CC(C)C)nnc23)cc1 -2.23%, COc1cccc(NC(=O)C2CCC(CNC(=O)[C@@H]3Cc4ccccc4CN3)CC2)c1 (stereo not given in full) -1.87%, Cc1ccc(C)c(NC(=S)N2CCC(NC(=O)c3ccco3)CC2)c1 -1.71%, Cc1cccc(-n2c(C)c(-c3ccccc3)[nH]c2=S)c1 -0.519%, O=C(CCCCn1c(=O)c2ccccc2n(Cc2ccccc2)c1=O)NC1CCN(Cc2ccccc2)CC1 -1.56%, COc1cc2c(cc1OC)C1O[C@](CCCCN3C(=O)c4ccccc4C3=O)(C2)OC2=C1C(=O)c1ccccc1C2=O 6.56% [at 1.84 µM], CCOc1ccc(/C=C2\SC(=O)N(CCNC(=O)CN3C(=O)NC4(CCCC4)C3=O)C2=O)cc1OC -2%, COc1ccc(CCNc2oc(COc3ccccc3Cl)nc2C#N)cc1OC -1.72%, COC(=O)c1ccc(C2=NOC(C)(c3nnc(Cc4ccccc4)o3)C2)cc1 (stereo not given) -0.967%, COc1cc(NC(=O)Cn2nc(C(F)(F)F)c(Br)c2C)cc([N+](=O)[O-])c1 -2.5%, COc1cccc(NC(=O)c2cc([N+](=O)[O-])ccc2NC(=O)CNCC2CCCO2)c1 (stereo not given) 7.17%, CCc1ccccc1NC(=O)CNC(=O)CNC(=O)c1cccs1 -4.86%, CCCCN(C(=O)C1CC(=O)N(c2ccc(CC)cc2)C1)c1c(N)n(CCC)c(=O)[nH]c1=O (stereo not given) -2.88%, O=C(COC(=O)c1cc2ccccc2cc1O)c1ccccc1 0.382%, CC1=C(C(=O)OC(C)C)C(c2cccnc2)n2ncnc2N1 (stereo not given) -2.75%, Cc1cc(C)c2c(CN3CCN(C)CC3)cc(=O)oc2c1 0.98%, CN1CCN(CCCNC(=O)Nc2ccc([N+](=O)[O-])cc2)CC1 -1.09%, CCOc1ccc(NC(=O)CN(C)C(=O)c2cn3ccccc3n2)cc1OCC -1.24%, Cc1cccc(C)c1OCC(=O)Nc1cccc(-c2nnc(-c3ccccc3)o2)c1 2.65%, O=[N+]([O-])c1ccccc1S(=O)(=O)N1CCN(c2ccccc2)CC1 -0.568%, COc1ccc(N(CC(=O)Nc2c(C)n(C)n(-c3ccccc3)c2=O)S(=O)(=O)c2ccc(F)cc2)cc1 2.41%, COc1ccc(C(=O)c2c(C)oc3ccc(O)cc23)c(OC)c1 -5.88%, COc1ccccc1NC(=O)CCCC(=O)OCC(=O)c1ccc(F)cc1 -5.74%, COc1ccccc1N1CCN(/N=C/c2ccccc2C(=O)O)CC1 -1.89%, CN(C)c1ccc(/C=N\NC(=O)c2ccc(Cn3cc(Cl)cn3)cc2)cc1 -0.272%, NC(=O)CCC(NC(=S)Nc1ccccc1)C(=O)O (stereo not given) -1.91%, O=C(NCc1cnc2ccccn12)C1CCC(=O)N(Cc2ccccc2F)C1 (stereo not given) -5.23%, Cc1nc(/N=C(\N)NC(=O)c2ccccc2)nc2ccccc12 22.6%, COC(=O)C1CCN(C(=O)CSc2nnc(-c3ccccc3)o2)CC1 -3.24%, CCCn1c(=O)c2ccccc2n2c(SCc3nc4ccccc4s3)nnc12 3.35%

Source: PubChem BioAssay AID485313 (National Center for Advancing Translational Sciences (NCATS), 2010)
